Assay results as given in the supplement of paper PMC7826260.
The other results are listed elsewhere or left out. Each Rep nickase domain was tested in vitro on the same pool of single strands at 3 µM enzyme and 37 °C for 1 h; the strands have 90 letters, of which the middle is given. Values are log2 of uncut reads against the no-enzyme pool; more negative means more cut, near 0 not cut, and no call is made. The scaling is to total reads, so uncut sequences can rise above 0 when many others are cut.

test system: T1, Rep nickase domain of tomato golden mosaic virus; assay: uncleaved DNA left, log2 of reads against the no-enzyme library (log2 ratio); higher = less cleavage (more negative = more Rep cleavage of the k-mer); sequences stand for … in CTCGTCCG…ACCGGAGA
T1 sequence (protein, residues 1-124, tag omitted): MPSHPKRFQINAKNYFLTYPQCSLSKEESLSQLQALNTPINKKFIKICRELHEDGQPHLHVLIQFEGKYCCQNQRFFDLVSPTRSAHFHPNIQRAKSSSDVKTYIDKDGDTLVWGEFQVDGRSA
Experimental: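 A pool of 90-nt single-stranded DNAs with seven random bases just before the constant AC of the nick site (name = the seven bases) was cut by 3 µM recombinant His6-SUMO-tagged Rep nickase domain (300 nM DNA, 50 mM HEPES pH 8.0, 50 mM NaCl, 1 mM MnCl2, 1 h, 37 °C, three replicates). Uncut DNA was amplified and sequenced.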

Sequence | uncleaved DNA left (log2)
ACCTGTC | -0.0927
ACCCCGG | 0.219
TCCTGGC | -0.251
GTAGGCC | 0.0912
GTCAGTA | 0.183
AAGGAGT | -0.0283
AGATACC | 0.0901
TAAACCG | -0.0433
CACCTGA | 0.0295
CACCTGG | 0.0253
GAGACAT | 0.00502
ACTCATA | 0.0712
AAATACA | -0.161
AGACTGT | -0.089
CGTCCAA | -0.184
CGCTAGA | -0.0758
GCCCGAG | 0.0785
TGCCGAT | -0.178
GGACAAC | -0.0421
TGCGAGT | -0.0643

Sequence | uncleaved DNA left (log2)
AAAAACT | -0.309
TCAAGCT | 0.00372
CAGTCCA | 0.0132
CCCTTGC | -0.188
TCTCAAC | -0.0671
TTTGAAA | -0.00198
TTGCCGA | -0.243
TGCGTGC | 0.132
TGTGCCT | -0.239
ATTCCTG | -0.039
AAAACTC | -0.0236
GTTCCTG | 0.00935
CTCGGAA | 0.0364
TAGCCCG | -0.0739
CAAGTCT | -0.228
GAAGCCG | -0.0636
GGGCTAG | 0.256
ATGTCAC | -0.102
TGATTCC | 0.0186
CTTTCAG | 0.0745
